The values that follow come from PubChem BioAssay AID1159614 (National Center for Advancing Translational Sciences (NCATS), 2016).

The campaign covered roughly 45,000 compounds. About 65 (0.1%) were called active. The call rests on the fitted dose curve; in most records, active means well fitted activation curve with a large enough effect; inconclusive means small, poorly fitted or top-dose-only effect; inactive means no such curve, though single readings can be large or run the other way. The list shows a part of the results.
Potency means the concentration at half of the fitted maximal effect.

The target in the experiment is Galactocerebrosidase (Homo sapiens) (UniProt P54803). Kind of experiment: A Novel Cell-Based Assay to Identify Small Molecules for B -Galactocerebrosidase. Further: nearly all actives have a fitted effect of over 65% in size. On activation: 0% is about no effect. The following applies: 145M-Twi-hGALC-G270D cells (Twitcher mouse brain line with human GALC G270D), HMU-beta-Gal fluorescence, 48 h; series mostly up to 57.5 µM; activation: at the top concentration. In a few lines: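 Fluorogenic HMU-b-Gal hydrolysis (0.1 mM final, pH 5.2 citrate-phosphate with 1 mg/mL sodium taurocholate; carbonate stop buffer) measures mutant GALC activity after compound treatment of live 145M-Twi Twitcher brain cells stably carrying human GALC-G270D, with wild-type GALC line alongside; activation sought.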
UniProt P54803, sequence (P54803 whole entry, looked up): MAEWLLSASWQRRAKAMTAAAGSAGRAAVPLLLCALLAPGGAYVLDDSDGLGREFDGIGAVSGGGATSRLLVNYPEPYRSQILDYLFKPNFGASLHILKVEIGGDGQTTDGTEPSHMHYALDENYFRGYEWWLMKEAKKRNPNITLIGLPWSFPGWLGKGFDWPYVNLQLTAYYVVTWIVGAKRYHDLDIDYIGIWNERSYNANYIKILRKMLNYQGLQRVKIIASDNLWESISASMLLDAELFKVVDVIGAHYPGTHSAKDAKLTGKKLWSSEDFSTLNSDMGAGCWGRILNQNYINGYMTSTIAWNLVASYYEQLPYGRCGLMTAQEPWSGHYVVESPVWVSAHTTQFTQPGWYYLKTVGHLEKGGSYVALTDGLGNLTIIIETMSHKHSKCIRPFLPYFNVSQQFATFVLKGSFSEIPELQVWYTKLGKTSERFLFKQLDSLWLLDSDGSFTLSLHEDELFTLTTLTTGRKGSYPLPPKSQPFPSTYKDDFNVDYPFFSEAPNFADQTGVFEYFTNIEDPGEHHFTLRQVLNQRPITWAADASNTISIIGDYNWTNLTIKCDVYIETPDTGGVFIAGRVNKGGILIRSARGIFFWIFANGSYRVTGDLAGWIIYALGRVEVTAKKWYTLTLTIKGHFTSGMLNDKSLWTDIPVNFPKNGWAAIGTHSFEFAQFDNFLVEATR
With `Cc1ccc2occ(CC(=O)Nc3ccc(Cl)c(C(F)(F)F)c3)c2c1`, the “activation” value is inactive: -3.8%. Turning to `COc1ccc(C2=C(C)C(N3CCN(c4ccc(OC)cc4)CC3)=NS2(=O)=O)cc1`, the “activation” value is inactive: -10.2%.

`CCOCCCn1c(=N)c(C(=O)NC(C)c2ccccc2)cc2c(=O)n3cccc(C)c3nc21` (stereo not drawn): the Potency is active: 20 µM. In the case of `CCC(CC)C(=O)Nc1nnc(S(=O)(=O)N2c3ccccc3CC2C)s1` (stereo not drawn), the “activation” value is inactive: -22.1%.

In the case of `CN(C(=O)c1ccc2c(c1)N(Cc1ccc(F)cc1)C(=O)c1ccccc1S2(=O)=O)C1CCCCC1`, the “activation” value was inactive: -0.82%.

In the case of `COc1ccc(C(=O)NNc2ncnc3c2cnn3-c2ccc(C)cc2C)cc1`, the “activation” value is inactive: -13%.

For `CCc1ccc(CN(C(=O)Nc2cccc(Cl)c2)c2ccccn2)cc1`, the “activation” value is inactive: -22.2%. The same measure, in the same setting: then `COC(=O)c1nc2n(n1)C(c1cc(OC)ccc1OC)C=C(c1ccc(Br)cc1)N2` (stereo not drawn), with inactive: -8.01%; and `CCOC(=O)Cn1c(=O)oc2cc(S(=O)(=O)NC(C)c3ccccc3)ccc21` (stereo not drawn), with inactive: -14.1%.

As for `COc1ccccc1CNC(=O)c1ccc(-n2c(C)cc3c2CCCC3)cc1`, the “activation” value is inactive: -11.5%. Regarding `COc1ccc(Cl)cc1NC(=O)c1cnc(N2CCCCC2)c2ccccc12`, the “activation” value was inactive: -7.31%. As for `Cc1c(Cl)cccc1NS(=O)(=O)c1ccc(NS(=O)(=O)c2ccc3c(c2)OCCO3)cc1`, the “activation” value is inactive: -11.1%. On the same count and under the same terms, then `O=C(c1ccccc1F)N1c2nc(-c3ccco3)nn2C2(CCCCC2)[C@@H]2CCCC[C@@H]21`, with inactive: 3.3%; and `CCOc1ccc(NC(=O)CCn2cccn2)cc1`, with inactive: -10.7%; and `CCCCOC(=O)/C(C#N)=C\c1ccc(-c2ccc(Cl)cc2)o1`, with inactive: -8.36%. On the same count and under the same terms, with `CCOc1ccc(NC(=O)C2CCN(S(=O)(=O)c3c(C)noc3/C=C/c3ccco3)CC2)cc1` the figure was inactive: -13.1%; with `CCOC(=O)c1ccccc1NC(=O)N1CC(C)Oc2ccc(C)cc21` (stereo not drawn), inactive: 0.384%; with `O=C(Nc1ccc(Br)cc1)C1CCN(c2ncccn2)CC1`, inactive: -10.6%.

As for `COc1cc(NC(=O)C(=O)Nc2ccc3nc4n(c(=O)c3c2)CCCCC4)cc(OC)c1OC`, the “activation” value was inactive: -7.35%. The same measure, in the same setting: with `CCOC(=O)N1CCN(C(=O)c2ccc3c(c2)N(Cc2cccc(Cl)c2)C(=O)c2ccccc2S3=O)CC1` (stereo not drawn) the figure was inactive: -6.93%; with `CC(=O)c1ccc(C(=O)N(Cc2cccnc2)c2nc3c(C)c(C)ccc3s2)cc1`, inactive: -8.63%. Same read-out and setting: with `O=C1CN(C(=O)COc2ccc(Cl)cc2)C(c2ccc(F)cc2)c2cc(Cl)ccc2N1` (stereo not drawn) the figure was inactive: -25.9%; with `Cc1ccc(-c2nc3ccccn3c2Nc2ccc3c(c2)OCCO3)o1`, inactive: -8.65%; with `COc1ccc(Br)cc1CNC(=O)CCc1cn(Cc2ccc(C)cc2)c2ccccc12`, inactive: -19%.

As for `CC1=C(c2ccc(Cl)cc2)S(=O)(=O)N=C1N1CCC(C(=O)NCCc2ccco2)CC1`, the “activation” value was inactive: -11.4%. Regarding `CCOC(=O)c1ccccc1NC(=O)c1cc2c(s1)-c1ccccc1SC2`, the “activation” value is inactive: -27.8%.

In the case of `COC(=O)c1sccc1S(=O)(=O)N1CCN(c2ccc(Cl)cc2)CC1`, the “activation” value is inactive: -6.62%. The same measure, in the same setting: then `Cc1scc(CN2CCN(c3ccc(F)cc3)CC2)c1C`, with inactive: -0.567%; and `COc1ccccc1N1CCN(S(=O)(=O)CCNC(=O)COc2ccccc2F)CC1`, with inactive: -16.8%. Regarding `Cc1ccc(CNc2ncccc2-c2nc(-c3ccc(Cl)cc3)no2)cc1`, the “activation” value is inactive: 5.56%. `O=C(CCCn1c(=O)c2sccc2n(Cc2ccc(Cl)cc2)c1=O)NCc1ccc2c(c1)OCO2`: the “activation” value was inactive: -13.4%. The same measure, in the same setting: then `CC(C)CC(NC(=O)C1CCCCC1)C(=O)Nc1cccc(C(F)(F)F)c1` (stereo not drawn), with inactive: -3.34%; and `CC(C)c1ccc(NC(=O)CN2C(=O)CSc3ccc(S(=O)(=O)N4CCCC4)cc32)cc1`, with inactive: -19.9%; and `Cc1ccc(-c2nc(S(=O)(=O)c3ccccc3)c(SCC(=O)NC3CCCCC3)o2)cc1`, with inactive: -2.42%.

Take `Cc1ccc(Cl)cc1N1CCN(C(=O)c2nn(C)c3c2CS(=O)(=O)c2ccccc2-3)CC1`: the “activation” value is inactive: -5.34%. Take `COc1ccc(CCNC(=O)CCc2cn(Cc3ccc(F)cc3)c3ccccc23)cc1OC`: the “activation” value is inactive: 2.06%.

Regarding `Cc1ccc(Cl)cc1NC(=O)c1cc(CN2CCCC2)on1`, the “activation” value is inactive: -14.3%. As to `CCc1cccc(C)c1NC(=O)c1cc(S(=O)(=O)N2CCCCCC2)cn1C`, the “activation” value was inactive: -15.7%. With `COc1ccc(-c2cc(C(F)(F)F)nc(SCCC(=O)Nc3cccc(OC)c3)n2)cc1`, the “activation” value is inactive: 3.99%. With `O=C(NC1CC1)c1ccc(Cn2c(SCc3ccc(F)cc3)nc3cccnc32)cc1`, the “activation” value is inactive: 3.53%. Still for that read-out and setting: with `Cc1cccc(N2CCN(C(=O)c3cccn3-c3nnc(N4CCCCC4)s3)CC2)c1C` the figure was inactive: -29.1%. As to `CCc1ccc(NC(=O)c2ccc(NS(=O)(=O)c3c(C)noc3C)cc2)cc1`, the “activation” value was inactive: -15.6%. For the compound `CCCOc1ccc(C(=O)Nc2ccc(-c3cc4ccccc4oc3=O)c(C)c2)cc1`, the “activation” value is inactive: -12%. As to `CCc1ccc(CNC(=O)c2sc3nc[nH]c(=O)c3c2C)cc1`, the “activation” value was inactive: -0.794%. As for `O=C(COc1ccc(F)cc1)Nc1ccc(S(=O)(=O)N(Cc2ccccc2)c2ccccc2)cc1`, the “activation” value was inactive: -18.1%.

With `COc1ccc(NC(=O)CCn2c(-c3ccc(F)cc3)cc(C(C)=O)c2C)c(OC)c1`, the “activation” value is inactive: -15.9%.

With `O=c1cc(CSc2ccccc2)[nH]c2ccc(F)cc12`, the “activation” value was inactive: 3.35%. Still for that read-out and setting: with `CCCNc1ncnc2c1c(-c1ccccc1)cn2-c1ccc(OCC)cc1` the figure was inactive: -26.5%.
